# Measurements from publication PMC9911399, “Two distinct binding modes provide the RNA-binding protein RbFox with extraordinary sequence specificity”.
# Positions count from the first letter of the chain named. The list shows a part of the results.
# T1: RBFOX1 RRM (Homo sapiens, UniProt Q9NWB1 109-208)
# T1 sequence: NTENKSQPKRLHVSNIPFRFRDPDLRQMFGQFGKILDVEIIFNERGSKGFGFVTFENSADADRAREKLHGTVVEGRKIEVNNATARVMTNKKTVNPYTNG
# B1: CUCACAC (DNA:RNA)
# RNA: GGGAGACCGGAAUUCAGAUUGUCCCUCACACUUAAAUCCCGUCGUAGCCACCA
# DNA 1: CAATCTGAATTCCGGTCTCCC
# DNA 2: TGGTGGCTACGACGGGATT
# B2: GAGACGU (DNA:RNA)
# RNA: B1 RNA with C25G, U26A, C27G, A30G, C31U
# DNA 1: CAATCTGAATTCCGGTCTCCC
# DNA 2: TGGTGGCTACGACGGGATT
# B3: AUGUCCC (DNA:RNA)
# RNA: B1 RNA with C25A, C27G, A28U, A30C
# DNA 1: CAATCTGAATTCCGGTCTCCC
# DNA 2: TGGTGGCTACGACGGGATT
# B4: UCGGCUU (DNA:RNA)
# RNA: B1 RNA with C25U, U26C, C27G, A28G, A30U, C31U
# DNA 1: CAATCTGAATTCCGGTCTCCC
# DNA 2: TGGTGGCTACGACGGGATT
# B5: UCUACUC (DNA:RNA)
# RNA: B1 RNA with C25U, U26C, C27U, A30U
# DNA 1: CAATCTGAATTCCGGTCTCCC
# DNA 2: TGGTGGCTACGACGGGATT
# B6: GUUCAAU (DNA:RNA)
# RNA: B1 RNA with C25G, C27U, A28C, C29A, C31U
# DNA 1: CAATCTGAATTCCGGTCTCCC
# DNA 2: TGGTGGCTACGACGGGATT
# B7: UUGACUG (DNA:RNA)
# RNA: B1 RNA with C25U, C27G, A30U, C31G
# DNA 1: CAATCTGAATTCCGGTCTCCC
# DNA 2: TGGTGGCTACGACGGGATT
# B8: UUUACUG (DNA:RNA)
# RNA: B1 RNA with C25U, C27U, A30U, C31G
# DNA 1: CAATCTGAATTCCGGTCTCCC
# DNA 2: TGGTGGCTACGACGGGATT
# B9: AUAUCAA (DNA:RNA)
# RNA: B1 RNA with C25A, C27A, A28U, C31A
# DNA 1: CAATCTGAATTCCGGTCTCCC
# DNA 2: TGGTGGCTACGACGGGATT
# B10: CAGUGUC (DNA:RNA)
# RNA: B1 RNA with U26A, C27G, A28U, C29G, A30U
# DNA 1: CAATCTGAATTCCGGTCTCCC
# DNA 2: TGGTGGCTACGACGGGATT
# B11: AGCUUGU (DNA:RNA)
# RNA: B1 RNA with C25A, U26G, A28U, C29U, A30G, C31U
# DNA 1: CAATCTGAATTCCGGTCTCCC
# DNA 2: TGGTGGCTACGACGGGATT
# B12: UCUUCUU (DNA:RNA)
# RNA: B1 RNA with C25U, U26C, C27U, A28U, A30U, C31U
# DNA 1: CAATCTGAATTCCGGTCTCCC
# DNA 2: TGGTGGCTACGACGGGATT
# B13: GGCUGGU (DNA:RNA)
# RNA: B1 RNA with C25G, U26G, A28U, C29G, A30G, C31U
# DNA 1: CAATCTGAATTCCGGTCTCCC
# DNA 2: TGGTGGCTACGACGGGATT
# B14: GUUAGCG (DNA:RNA)
# RNA: B1 RNA with C25G, C27U, C29G, A30C, C31G
# DNA 1: CAATCTGAATTCCGGTCTCCC
# DNA 2: TGGTGGCTACGACGGGATT
# B15: CCAGAGC (DNA:RNA)
# RNA: B1 RNA with U26C, C27A, A28G, C29A, A30G
# DNA 1: CAATCTGAATTCCGGTCTCCC
# DNA 2: TGGTGGCTACGACGGGATT
# B16: UUGGUAC (DNA:RNA)
# RNA: B1 RNA with C25U, C27G, A28G, C29U
# DNA 1: CAATCTGAATTCCGGTCTCCC
# DNA 2: TGGTGGCTACGACGGGATT
# B17: CGUGCCG (DNA:RNA)
# RNA: B1 RNA with U26G, C27U, A28G, A30C, C31G
# DNA 1: CAATCTGAATTCCGGTCTCCC
# DNA 2: TGGTGGCTACGACGGGATT
# B18: CCUGCUU (DNA:RNA)
# RNA: B1 RNA with U26C, C27U, A28G, A30U, C31U
# DNA 1: CAATCTGAATTCCGGTCTCCC
# DNA 2: TGGTGGCTACGACGGGATT
# B19: CGAAUGU (DNA:RNA)
# RNA: B1 RNA with U26G, C27A, C29U, A30G, C31U
# DNA 1: CAATCTGAATTCCGGTCTCCC
# DNA 2: TGGTGGCTACGACGGGATT
# B20: GUUUUAC (DNA:RNA)
# RNA: B1 RNA with C25G, C27U, A28U, C29U
# DNA 1: CAATCTGAATTCCGGTCTCCC
# DNA 2: TGGTGGCTACGACGGGATT
# Target: T1, RBFOX1 RRM
# Test: EMSA; HiTS-Eq, 1 nM pool, 10 min; buffer printed only for the single-RNA assays: 10 mM Tris pH 7.5, 150 mM NaCl, 3.4 mM EDTA, 0.001% NP-40, 30 C
# Conditions: tags: His6 N-terminal (pET28a); label: 5' 32P
# Summary of the method: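 A pool of RNA with 7 randomized nucleotides, 5′-radiolabelled and with DNA-annealed flanks, was equilibrated at 1 nM for 10 min in 50 µL with purified RbFox RRM, wild type or mutant, across increasing protein concentrations. Free RNA was separated by 8% native PAGE, excised, reverse-transcribed, barcoded by PCR and sequenced. Relative association constants were obtained from read-count changes of each RNA species versus the control reaction and normalised to the cognate motif.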
row,Binder,binding signal
1,B1,0.000557 KA relative to UGCAUGU
2,B2,0.00788 KA relative to UGCAUGU
3,B3,0.00671 KA relative to UGCAUGU
4,B4,0.0185 KA relative to UGCAUGU
5,B5,0.0038 KA relative to UGCAUGU
6,B6,0.00782 KA relative to UGCAUGU
7,B7,0.0306 KA relative to UGCAUGU
8,B8,0.0136 KA relative to UGCAUGU
9,B9,0.00125 KA relative to UGCAUGU
10,B10,0.00846 KA relative to UGCAUGU
11,B11,0.023 KA relative to UGCAUGU
12,B12,0.00872 KA relative to UGCAUGU
13,B13,0.0324 KA relative to UGCAUGU
14,B14,0.0124 KA relative to UGCAUGU
15,B15,0.00442 KA relative to UGCAUGU
16,B16,0.0204 KA relative to UGCAUGU
17,B17,0.011 KA relative to UGCAUGU
18,B18,0.0137 KA relative to UGCAUGU
19,B19,0.0168 KA relative to UGCAUGU
20,B20,0.0106 KA relative to UGCAUGU
